Laboratory results: PubChem BioAssay (NCI)
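Assay format: 96-well plates, 48-hour exposure. Here, GI50 denotes the concentration required for 50% inhibition of growth. At the TGI there is no net growth.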

Test system: NCI-H322M lung
Experiment: NCI tumour cell line growth inhibition, 48 h

Structure (SMILES)	GI50	TGI
CC(C)C[C@H]1C(=O)O[C@H](C(C)C)C(=O)N(C)[C@@H](C(C)C)C(=O)O[C@H](C(C)C)C(=O)N(C)[C@@H](C(C)C)C(=O)O[C@H](C(C)C)C(=O)N1C	2820 nM	> 10 µM
Cc1ccc(-c2nc(C(Cl)Cl)nc3cc(-c4ccccc4)nn23)cc1	9140 nM	37.2 µM
OC1CCN(CCCOc2c3ccc(Cl)cc3nc3c2oc2ccc(Cl)cc23)CC1	1160 nM	15.8 µM
